# The source gives no read counts; variants with many changes may rest on few reads.
# B1: LINE1-mini (parent)
# chain: GGCAGAGCUCAACACAGCGUGGCAAAGUGGCUGUGGCUAGACUGCC
# Variants of: B1
# Experiment: self-cleavage, relative activity (ratio to wild type); higher = more cleavage; in vitro, sequencing; the parent is a self-cleaving ribozyme
row,Variant,self-cleavage
1,A16U G19U U38A,0.04
2,G17U G19A A26U G30U G35A,0.02
3,G17A C18U U32G G35A A41U,0.04
4,G17A C23U A24U A26U G36A,0.07
5,G17U G22A A39C G40C,0.05
6,G17A A26U U28A,0.06
7,G17U G19U U34A A41G,0.01
8,G17A A25G A26G U34A G36C A41C C46A,0
9,C18A G21A C42U,0.36
10,G17C A41G C45G,0.05
11,G17A G27A G40U G44A,0.05
12,G17A C18A A25C G29U,0.05
13,A16U C31U G40A,0
14,G17A C18U A41C,0.01
15,C18A C23G G36U G40U,0.59
16,G17C C18A G27U U32C G36A G40U C42G,0.03
17,C18A C23U A25U A26C,0.19
18,G17A C37U A39G,0
19,G17A A24U G30A,0.21
20,C18A G27U G40A,0.01
21,G17U A26U C45G,0.05
22,G17U C18U U43C,0.13
23,C18A G21U C23A,2.23
24,G17A C23A A24U G27U C31U U32G,0.02

row,Variant,self-cleavage
1,A16U U32A G44C,0.49
2,G17C G35U C42A,0.03
3,G17U C23U A24G,0.03
4,G17A C37G U38G A41G,0
5,A16U G19A G44U,0.07
6,A16U G22A U32C G44A,0.04
7,A16U G21U C45A,0.11
8,G17U G22C U28C U32A G35U G40U A41U,0.05
9,G17C A25C G27A G33C C37A,0.05
10,G17U G19U G22U A25C G30C,0.13
11,G17A C31U G40A,0.02
12,G17U U20G U32A,0.11
13,A16U G33C G40C,0.02
14,A16U G27U U28C G33A G36U,0.09
15,A16U G19A G29U,0.44
16,C18A G22A U38C,1.88
17,G17A C18G U34A,0.03
18,G17A C18U G40C,0.01
19,G17U G35U C42A C46G,0.03
20,G17U G33U C37A,0.08
21,G17C G36A G40A,0.14
22,G17A G22U U32A,0.1
23,A16U G21A U28A C37A,0.02
24,G17U G22C G40U C42A,0.04

row,Variant,self-cleavage
1,G17C A25U U34C,0.04
2,G17U G22U G44C,0.14
3,G17A G22C U43A,0.06
4,G17C U28G G35C,0.05
5,G17U G33A U34G C46G,0.01
6,G17C U34C G35U U38A A41U,0.03
7,A16U G21U G29U U34G,0.02
8,C18A G30A C45A,0.22
9,C18A A24U A26U,0.08
10,G17A U28A G30U G33C G36A C42G,0.01
11,C18A G33A C42A U43C,0.04
12,G17C G22C A25U G36A,0.07
13,G17U U38G G44U,0.02
14,G17U G19C G29C C31U C45A,0.02
15,C18A G22C G27A G36A A41C,0.03
16,A16U U34A G35C A39C A41C,0.01
17,G17A G19A G29C C46U,0.06
18,A16U G33A A39C,0
19,C18A G21U U32G G33A,0.12
20,G17A A26U G44C,0.04
21,G17C C18A C45G,0.05
22,G17U A24C U32C,0.1
23,A16U G17C G19U G29A,0.04
24,G17U C37G C42G,0.01

row,Variant,self-cleavage
1,G17U C18A G30A,0.33
2,G17A U20A U43G,0.03
3,A16U U20G C31A,0.03
4,G17A G30C U32A,0.3
5,G17A G30C U32G,0.22
6,G17U C31U U38C C42U,0.02
7,C18A G33A G36U G40A,0.02
8,G17U U32G G44A,0.07
9,G17A A41C C45A C46U,0.02
10,G17U G30C A41U C42U,0.01
11,G17U G21A G36U C37A,0.06
12,G17A G21C U34G C37A,0.02
13,C18A G22A U28C,0.78
14,G17U C31U C37A G40C,0.03
15,G17A C31U C46G,0.68
16,G17U G19C U20A G29U G30U,0.49
17,G17U C18G G33A C42G G44U,0.05
18,C18A G22U A25U C42U,0.87
19,G17A G22A A24C A26G G30A G44A,0.01
20,G17C G29C G30U G44U,0.02
21,G17A C18A U20C G29C G36U G40U,0.02
22,A16U G19U G35C A41C,0.02
23,A16U G22U G36U G44U,0.06
24,C18A A25G A39C,0.01

row,Variant,self-cleavage
1,G17C C18G G29U,0.03
2,C18A A25G A41G,0.05
3,G17C G35U C37A,0.05
4,G17A A24G U34G G35U,0.01
5,C18A G29U U34A C37U,0.01
6,A16U G19U A26U,0.16
7,G17A G19U U28G,0.51
8,G17C C23U C37A,0.06
9,G17C C18A A41U C42A,0.05
10,G17A G19C G21A,1.04
11,A16U C31U G44U,0.02
12,C18A G19C G33U,0.02
13,G17U A41U C42G,0.08
14,G17U U20G G27A C37U,0.02
15,G17U C18A U28A,0.09
16,G17C G29C U34G C37U,0
17,G17C G19A C42U,0.16
18,C18A G19U C37G,0.01
19,G17U G33C G35U,0.02
20,G17A G22A G40C,0.03
21,C18A C45A C46A,0.08
22,G17A U20C G36U,0.02
23,G17C C31A U32A,0.37
24,G17U G22U C37U,0.04

row,Variant,self-cleavage
1,G17A A26C G27U C45G,0.05
2,A16U G29U U34G A41U,0.08
3,C18A G19A G44A,0.17
4,C18A C31U G36U A41C G44C,0
5,C18A G19C G29U U32G A39C,0.04
6,G17A G19C A26G U32G,0.03
7,A16U G19A U38G C42G,0.03
8,G17C C42U G44A,0.09
9,C18A A41U C42U,0.03
10,C18A G27U G33U,0.06
11,G17C G21U U38C,0.2
12,G17U U38C C45A,0.01
13,G17U G21A A25G G30A U38A,0.15
14,G17U C31G U38C,0.26
15,A16U G17A A24G A26C,0.01
16,C18A C31U U38G,0.01
17,C18A G22A C37A,0.13
18,G17U G19U U28C,0.04
19,G17C A25C U34G,0.03
20,G17A G19A U28C C46A,0.06
21,G17U C31A G40U A41C,0.13
22,G17C G27A C31A G40U,0.04
23,C18A G27A U32A C46U,0.01
24,C18A G22A G44C C46U,0.05

row,Variant,self-cleavage
1,A16U U28G C46A,0.12
2,G17A U34A C46U,0
3,G17A G19U G44U,0.05
4,G17C G27U G36U A39C,0.05
5,G17U A26C U43A,0.22
6,A16U G17U C18U C37U,0.06
7,G17C G33U G44U,0.07
8,G17C C18A G19U C31A C37G,0.01
9,C18A A25G G33C G44U,0.02
10,A16U U32C C37U U38C,0.02
11,G17C U20G G40A,0.01
12,G17A G21U G44A,0.03
13,G17U G21U G29C,2.97
14,A16U G29U C31U,0.02
15,A16U U20G G22C,0.08
16,A16U G21U C46U,0.05
17,G17A A25U G27U,0.24
18,G17A G19U C31G U38C,0.02
19,C18A A24U C45U,1.6
20,G17U G19A G27A U34A A41C,0.02
21,G17A G22A C31A A39G,0.02
22,G17A U20C C23U G35C,0.03
23,C18A A24U C37G,0.02
